# Results as given in the supplement of paper PMC8728848.
# The other results are listed elsewhere or left out.
# Legend:
# Assay in all cases: glycan array binding signal (z-score within array); higher = stronger binding
# Details in all cases: glycan notation: IUPAC condensed, linker removed
# [1] = molecular target: Gal(b1-4)GlcNAc(b1-3)Gal(b1-4)GlcNAc(b1-3)Gal(b1-4)GlcNAc(b1-3)Gal(b1-4)GlcNAc(b1-2)Man(a1-3)[Gal(b1-4)GlcNAc(b1-3)Gal(b1-4)GlcNAc(b1-3)Gal(b1-4)GlcNAc(b1-3)Gal(b1-4)GlcNAc(b1-2)Man(a1-6)]Man(b1-4)GlcNAc(b1-4)GlcNAc
# How it was run: (§1)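 Columns mapping to the same glycan were averaged after glycan names were converted to IUPAC-condensed notation. The data come from 3228 arrays in the Consortium for Functional Glycomics database, limited to those with an available protein sequence. Binding is reported as a within-array Z-score averaged across arrays of one protein sequence and across linkers.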
# [2] = molecular target: Gal(b1-4)GlcNAc(b1-3)Gal(b1-4)GlcNAc(b1-3)Gal(b1-4)GlcNAc(b1-3)Gal(b1-4)GlcNAc(b1-2)Man(a1-3)[Gal(b1-4)GlcNAc(b1-3)Gal(b1-4)GlcNAc(b1-3)Gal(b1-4)GlcNAc(b1-3)Gal(b1-4)GlcNAc(b1-2)Man(a1-6)]Man(b1-4)GlcNAc(b1-4)[Fuc(a1-6)]GlcNAc
# How it was run: as §1
# [3] = molecular target: Gal(b1-4)GlcNAc(b1-3)Gal(b1-4)GlcNAc(b1-3)Gal(b1-4)GlcNAc(b1-3)Gal(b1-4)GlcNAc(b1-2)[Gal(b1-4)GlcNAc(b1-3)Gal(b1-4)GlcNAc(b1-3)Gal(b1-4)GlcNAc(b1-3)Gal(b1-4)GlcNAc(b1-6)]Man(a1-6)[Gal(b1-4)GlcNAc(b1-3)Gal(b1-4)GlcNAc(b1-3)Gal(b1-4)GlcNAc(b1-3)Gal(b1-4)GlcNAc(b1-2)Man(a1-3)]Man(b1-4)GlcNAc(b1-4)[Fuc(a1-6)]GlcNAc
# How it was run: as §1
# [4] = molecular target: Gal(b1-4)GlcNAc(b1-3)Gal(b1-4)GlcNAc(b1-3)Gal(b1-4)GlcNAc(b1-3)Gal(b1-4)GlcNAc(b1-3)Gal(b1-4)GlcNAc(b1-2)Man(a1-3)[Gal(b1-4)GlcNAc(b1-3)Gal(b1-4)GlcNAc(b1-3)Gal(b1-4)GlcNAc(b1-3)Gal(b1-4)GlcNAc(b1-3)Gal(b1-4)GlcNAc(b1-2)Man(a1-6)]Man(b1-4)GlcNAc(b1-4)GlcNAc
# How it was run: as §1
# [5] = molecular target: Gal(b1-4)GlcNAc(b1-3)Gal(b1-4)GlcNAc(b1-3)Gal(b1-4)GlcNAc(b1-3)Gal(b1-4)GlcNAc(b1-3)Gal(b1-4)GlcNAc(b1-2)Man(a1-3)[Gal(b1-4)GlcNAc(b1-3)Gal(b1-4)GlcNAc(b1-3)Gal(b1-4)GlcNAc(b1-3)Gal(b1-4)GlcNAc(b1-3)Gal(b1-4)GlcNAc(b1-2)Man(a1-6)]Man(b1-4)GlcNAc(b1-4)[Fuc(a1-6)]GlcNAc
# How it was run: as §1
# [6] = molecular target: Gal(b1-4)GlcNAc(b1-3)Gal(b1-4)GlcNAc(b1-3)Gal(b1-4)GlcNAc(b1-3)Gal(b1-4)GlcNAc(b1-3)Gal(b1-4)GlcNAc(b1-2)[Gal(b1-4)GlcNAc(b1-3)Gal(b1-4)GlcNAc(b1-3)Gal(b1-4)GlcNAc(b1-3)Gal(b1-4)GlcNAc(b1-3)Gal(b1-4)GlcNAc(b1-6)]Man(a1-6)[Gal(b1-4)GlcNAc(b1-3)Gal(b1-4)GlcNAc(b1-3)Gal(b1-4)GlcNAc(b1-3)Gal(b1-4)GlcNAc(b1-3)Gal(b1-4)GlcNAc(b1-2)Man(a1-3)]Man(b1-4)GlcNAc(b1-4)[Fuc(a1-6)]GlcNAc
# How it was run: as §1
# [7] = molecular target: Gal(b1-4)GlcNAc(b1-3)Gal(b1-4)GlcNAc(b1-3)Gal(b1-4)GlcNAc(b1-3)Gal(b1-4)GlcNAc(b1-3)Gal(b1-4)GlcNAc(b1-3)Gal(b1-4)GlcNAc(b1-2)Man(a1-3)[Gal(b1-4)GlcNAc(b1-3)Gal(b1-4)GlcNAc(b1-3)Gal(b1-4)GlcNAc(b1-3)Gal(b1-4)GlcNAc(b1-3)Gal(b1-4)GlcNAc(b1-3)Gal(b1-4)GlcNAc(b1-2)Man(a1-6)]Man(b1-4)GlcNAc(b1-4)GlcNAc
# How it was run: as §1
# [8] = molecular target: Gal(b1-4)GlcNAc(b1-3)Gal(b1-4)GlcNAc(b1-3)GalNAc
# How it was run: as §1
# [9] = molecular target: Gal(b1-4)GlcNAc(b1-3)Gal(b1-4)GlcNAc(b1-3)[Gal(b1-4)GlcNAc(b1-3)Gal(b1-4)GlcNAc(b1-6)]GalNAc
# How it was run: as §1
# [10] = molecular target: Gal(b1-4)GlcNAc(b1-3)Gal(b1-4)GlcNAc(b1-6)[Gal(b1-3)]GalNAc
# How it was run: as §1
# [11] = molecular target: Gal(b1-4)GlcNAc(b1-3)Gal(b1-4)[Fuc(a1-3)]GlcNAc(b1-3)Gal(b1-4)[Fuc(a1-3)]GlcNAc
# How it was run: as §1
# [12] = molecular target: Gal(b1-4)GlcNAc(b1-3)GalNAc
# How it was run: as §1
# [13] = molecular target: Gal(b1-4)GlcNAc(b1-3)[Fuc(a1-3)GlcNAc(b1-6)]Gal(b1-4)Glc
# How it was run: as §1
# [14] = molecular target: Gal(b1-4)GlcNAc(b1-3)[Gal(b1-4)GlcNAc(b1-6)]Gal(b1-4)GlcNAc
# How it was run: as §1
# [15] = molecular target: Gal(b1-4)GlcNAc(b1-3)[GlcNAc(b1-6)]Gal(b1-4)GlcNAc
# How it was run: as §1
# [16] = molecular target: Gal(b1-4)GlcNAc(b1-6)Gal(b1-4)GlcNAc
# How it was run: as §1
# [17] = molecular target: Gal(b1-4)GlcNAc(b1-6)GalNAc
# How it was run: as §1
# [18] = molecular target: Gal(b1-4)GlcNAc(b1-6)[Gal(b1-3)]GalNAc
# How it was run: as §1
# [19] = molecular target: Gal(b1-4)GlcNAc(b1-6)[Gal(b1-4)GlcNAc(b1-3)]GalNAc
# How it was run: as §1
# Gal(b1-4)GlcNAc6P = molecular target: Gal(b1-4)GlcNAc6P
# How it was run: as §1
# Gal(b1-6)Gal = molecular target: Gal(b1-6)Gal
# How it was run: as §1
# Gal3S(b1-3)GalNAc = molecular target: Gal3S(b1-3)GalNAc
# How it was run: as §1
# Gal3S(b1-3)GlcNAc = molecular target: Gal3S(b1-3)GlcNAc
# How it was run: as §1
binder,measurement,setting,value
Epa1to9 (Candida glabrata) (protein) MGSSHHHHHHSSGLVPRGSHMTSSNDISLASKDPTTFPLGCSPDITTPKKGLSMELYSYDFRKKGSYPCWDAAYLDPNYPRTGYKSHRLLAKVDGVTGNINFYYHATKGCTPQLGHLPASYNYPKPLTMTNFTMLLYGYFRPKVTGFHTFTISADDLLFVNFGAGNAFDCCRRDSSADHFGNYQAYAIWGSKTAKDELTVHLDAGVYYPIRLFYNNRDYHGALSFTFKTESNENTVSDFSEYFFSLDDTEEGCPGLISYD,glycan array binding signal (z-score),[1],-0.075
same,glycan array binding signal (z-score),[2],0.011
same,glycan array binding signal (z-score),[3],0.242
same,glycan array binding signal (z-score),[4],0.122
same,glycan array binding signal (z-score),[5],-0.083
same,glycan array binding signal (z-score),[6],0.276
same,glycan array binding signal (z-score),[7],0.187
same,glycan array binding signal (z-score),[8],-0.089
same,glycan array binding signal (z-score),[9],0.572
same,glycan array binding signal (z-score),[10],0.549
same,glycan array binding signal (z-score),[11],-0.103
same,glycan array binding signal (z-score),[12],0.134
same,glycan array binding signal (z-score),[13],-0.065
same,glycan array binding signal (z-score),[14],-0.155
same,glycan array binding signal (z-score),[15],0.461
same,glycan array binding signal (z-score),[16],1.99
same,glycan array binding signal (z-score),[17],-0.027
same,glycan array binding signal (z-score),[18],1.69
same,glycan array binding signal (z-score),[19],0.209
same,glycan array binding signal (z-score),Gal(b1-4)GlcNAc6P,-0.321
same,glycan array binding signal (z-score),Gal(b1-6)Gal,0.228
same,glycan array binding signal (z-score),Gal3S(b1-3)GalNAc,-0.355
same,glycan array binding signal (z-score),Gal3S(b1-3)GlcNAc,-0.37
